This note sets out measurements from ChEMBL document CHEMBL1157539, “Thousands of chemical starting points for antimalarial lead identification” (Nature, 2010).

Whole data set: some 13,000 compounds, median “IFI” near 4, cut for the highest 2% near 17. The list shows a part of the results.

This assay is described as follows: GSK_TCMDC: Inhibition Frequency Index (IFI). The number of non-kinase HTS assays where a compound showed > 50 % inhibition, expressed as a percentage of the number of such assays in which the compound was tested (-0 is zero). Format: functional.
Molecule `CC(Sc1nnc(-c2ccccc2Br)[nH]1)C(=O)Nc1ccc(F)cc1` (centres undefined) yielded an IFI of 1.52%. For `Nc1ccc(Nc2ccnc3ccc(C(F)(F)F)cc23)cc1O`, the IFI was 10.1%. Consider `Cc1ccc(-c2cccc3c(NC(=O)Nc4ccc5nccc(N6CCN(C)CC6)c5c4)cccc23)cn1`, for which the IFI was found to be 4.35%. The same measure for `OC(c1ccc(Cl)cc1)(c1ccc(Cl)cc1)C(c1ccc(Cl)cc1)n1ccnc1` (centres undefined): 4.84%; for `CCN(c1ccc(F)cc1)S(=O)(=O)c1cc(Br)cc2c1N(C(=O)C1CC1)CC2`: 1.37%. The same measure for `Cc1cc(F)ccc1Oc1nc(Nc2ccc(N3CCOCC3)c(F)c2)nc2c1S(=O)(=O)CCC2`: -0%.

Take `Cc1cc(N2CCCC2=O)ccc1-c1ccc(C(=O)N2CCC(Oc3cccc(Cl)c3)CC2)cc1`: the IFI stood at 10.2%.

In turn, `COc1cc2[nH]c(-c3ccc(O)cc3)c(C)c(=O)c2c(OC)c1OC` had an IFI of -0%. The same measure for `CCCO[C@H](C(=O)OC)[C@@H](CC1Cc2ccccc2C1)C(=O)NCCC1=CCCCC1`: 2.22%; for `CCCN/C=N/c1cc(-c2csc(NC(=N)N)n2)cc([N+](=O)[O-])c1`: 2.14%; for `CCCN1CCN(CC(O)CNC(=O)Nc2ccc(Br)cc2)CC1` (centres undefined): 0%.

Molecule `O=C(Nc1cccc(C(F)(F)F)c1)c1ccc(S(=O)(=O)NC2CCN(CC3CCCCC3)C2)cc1` (centres undefined) returned an IFI of 4.04%.

As to `CC(=O)c1ccc(NC(=O)Nc2ccc(N(C)c3ccnc(Nc4cccc(CS(C)(=O)=O)c4)n3)cc2)cc1`, the IFI amounted to 10.1%. On to `CN1CCc2ccc(NC(=O)Nc3cccc([N+](=O)[O-])c3)cc2C1`, for which the IFI was 0.74%. `CC1(C)C(N(O)C(=O)Nc2ccc(Cl)c(Cl)c2)N(c2ccc(Cl)c(Cl)c2)C(=O)N1CCc1ccccc1` (centres undefined) displayed an IFI of 7.38%.

As for `CCCCCOc1ccc(C(O)C(CCC(CN2CCCCCC2)C(O)c2ccc(OCCCCC)cc2)CN2CCCCCC2)cc1` (centres undefined), the IFI came out at 12.9%. Turning to `CCS(=O)(=O)c1ccc(OC)c(Nc2nccc(-c3c(-c4cccc(NC(=O)c5c(F)cccc5F)c4)nn4ncccc34)n2)c1`, the IFI is 1.46%. With `CC(=O)Nc1ncc(C(=O)Nc2cccc(-c3cccc(-c4nc5ccccc5[nH]4)c3)c2)s1`, the IFI is 2.78%. `CN(C)c1ccc(-c2csc(C(=O)NC3CCN(CCC(C)(C)C)C3)c2)cc1` (centres undefined) came in with an IFI of 9.09%. The molecule `CCOC(=O)c1ccc2[nH]c(-c3ccc(C(=O)NC4CCN(Cc5ccccc5)CC4)s3)nc2c1` came in with an IFI of 4.26%. Regarding `COc1ccc(OC(C)CNC(=O)c2cc([N+](=O)[O-])ccc2-c2ccc(OC)cc2)cc1` (centres undefined), the IFI was 1.83%. `Cc1cccc2nc(-c3ccc(-c4cccc(CNCc5cnn(-c6ccccc6)n5)c4)s3)[nH]c12`: the IFI worked out at 7.94%.

Consider `O=C(NC1CCN(Cc2ccccc2)CC1)c1ccc2c(=O)n(Cc3ccc(Cl)cc3)c(=S)[nH]c2c1`, for which the IFI came out at 6.62%. To `CC(C)CNCc1cccc(-c2ccccc2CNC2CCN(Cc3ccccc3)CC2)c1` belongs 6.57%; to `Fc1ccc2[nH]c(-c3ccc(-c4cccc(CN5CCCCC5)c4)cc3)nc2c1`, 2.86%.

Regarding `N#Cc1ccc2c(c1)CCN(CCC1CCC(NC(=O)/C=C/c3ccc(F)c4ccccc34)CC1)CC2` (centres undefined), the IFI came to 1.5%. With `c1ccc(-c2cc3cccc(-c4nc5cnccc5[nH]4)c3o2)cc1`, the IFI was found to be 2.86%. To `CS(=O)(=O)Nc1cccc(-c2cnc3[nH]cc(-c4ccc(CCC(=O)O)cc4)c3c2)c1` belongs 2.75%. To `CC1(C)Cc2c([nH]c3ccccc23)C(CCCCCCCCC2=NC(C)(C)Cc3c2[nH]c2ccccc32)=N1` belongs 9.42%; to `CCN(CC)CCN(Cc1ccc(-c2ccc(C(F)(F)F)cc2)cc1)C(=O)Cn1nc(-c2ccc(C(F)(F)F)cc2)ccc1=O`, 8.97%; to `O=C1Nc2cccc3c2C1(CCCCN1CCC(c2c(-c4ccc(F)cc4)[nH]c4ccccc24)CC1)CCC3` (centres undefined), 7.91%. To `CC(C)(C)c1ccc(-c2cc3c(ccc4nc(N)nc(N)c43)[nH]2)cc1` belongs 13.5%; to `CCN(CCCN1CCCCC1)c1cc(C)nc(Nc2cccc(C(F)(F)F)c2)n1`, 10%; to `Cc1cccc2nc(-c3cccc(-c4ccc(NC(=O)C(C)(C)c5ccccn5)cc4)c3)[nH]c12`, 1.8%.

In the case of `O=S(=O)(c1cccc(Cl)c1F)N(CCC(O)(C(F)(F)F)C(F)(F)F)Cc1cccc(O)c1`, the IFI turned out to be 4.35%. To `Oc1ccc(CCNCCCCCCNCCc2ccc(Br)cc2)cc1O` belongs 5.15%. To `O=C(/C=C/c1ccc([N+](=O)[O-])cc1)N1CCC(CCN2CCC(c3c[nH]c4ccccc34)CC2)CC1` belongs 5.15%; to `COc1ccc(-c2cccc(NC(=O)c3ccc(Cl)cc3)c2)cc1CN1CCCN(C)CC1`, 10.7%; to `O=C1Nc2cccc3c2C1(CCCN1CCC(c2c[nH]c4cc(C(F)(F)F)ccc24)CC1)CCC3` (centres undefined), 11.3%. In turn, `CC(C)[C@@H](C(=O)NCc1cccc(C(F)(F)F)c1)N1C(=O)CCC1C(=O)Nc1ccc([N+](=O)[O-])cc1` (some centres undefined) yielded an IFI of 2.21%. Take `Cc1cccc2nc(-c3cccc(-c4ccc(CN5CCC(C(N)=O)CC5)cc4)c3)[nH]c12`: the IFI stood at 0.98%. In the case of `COc1ccc(-c2nc3c(NCc4ccccc4)nccc3[nH]2)c(OC)c1`, the IFI worked out at 2.27%. To `CC(C)CN1CCCN(Cc2cccc(NC(=O)c3ccc(-c4ccccc4)cc3)c2)CC1` belongs 2.05%; to `CN1CCN(CCCN(Cc2csc(-c3ccc(CNCc4ccccc4)cc3)n2)C(=O)Nc2cccc(Cl)c2)CC1`, 9.87%; to `O=C1C(=Cc2c(O)ccc3ccccc23)SC(=NCc2ccccc2)N1Cc1ccccc1`, 0.72%.

Regarding `Cc1cccc2nc(-c3ccc(-c4cccc(NC(=O)Cc5c[nH]cn5)c4)cc3)[nH]c12`, the IFI was 1.87%. To `O=C(/C=C/c1ccc(Cl)c(Cl)c1)N1CCC(CN2CCC(c3c[nH]c4cnccc34)CC2)CC1` belongs 2.8%. To `O=C(Cn1c(CCc2cccc(F)c2F)cc(=O)c2ccccc21)N(CCN1CCCC1)Cc1ccc(-c2ccc(C(F)(F)F)cc2)cc1` belongs 6.57%; to `Cc1cc(NC(=O)NCCN2CCC(NS(=O)(=O)c3ccc(C(F)(F)F)cc3)C2)c2ccccc2n1` (centres undefined), 0%; to `O=[N+]([O-])c1ccc(-n2nc(-c3cccnc3)n(Cc3ccco3)c2=S)c(Cl)c1`, 1.35%.

For the molecule `CCc1cc(NC2CCN(C)CC2)nc(Nc2ccc(C)cc2)n1`, the IFI stood at 2.82%.

Molecule `Cc1cc(NC(=O)c2cccs2)ccc1OC1CCN(Cc2ccc(F)cc2)C1` (centres undefined) came in with an IFI of 3.28%.

On to `C=CC[C@H](C[C@H](O)[C@H](Cc1ccccc1)NC(=O)c1ccc(-c2cccnn2)cc1)C(=O)NC1CCCCC1`, for which the IFI stood at 0%.

On to `COc1ccc(-n2ccnc2SCC(=O)Nc2cc(C(F)(F)F)ccc2Cl)c(OC)c1`, for which the IFI was found to be 3.05%.
